Assay results reported in PubChem BioAssay AID686971 (National Center for Advancing Translational Sciences (NCATS), 2013).
Screen size: about 360,000 compounds; about 7,500 (2.1%) were called active. Inconclusive results, whose numbers are uncertain, are shown with a selection of clear calls. Calls come from the whole dose curve; as a rule, active = well fitted cell-killing curve with a large enough effect; inconclusive = small, poorly fitted or top-dose-only effect, or effect the other way, or another doubt; inactive = no such curve, though single readings can be large or run the other way. Potencies of inconclusive entries are left out as doubtful fits.
Potency is the fitted concentration of half-maximal effect; tags give direction and shape of the fitted curve.

Assay: qHTS for induction of synthetic lethality in tumor cells producing 2HG: qHTS for the HT-1080-IDH1KD cell line;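 for activity, negative = toxicity: 0% = DMSO wells and -100% = cell-free medium wells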
Conditions: HT-1080 IDH1 knockdown viability, ATP luminescence, 48 h; activity, negative = toxicity: at 46.1 µM (top of the series) unless noted
How it was run: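 Knockdown cells (IDH1KD HT-1080) received compounds 2 h after plating at 750 cells/well and were kept 48 h at 37 °C in 5% FBS RPMI. A CellTiter-Glo luminescence read gave % activity for curve fitting.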
For `CC(C)(C)n1cnc2cc(NS(=O)(=O)c3ccccc3)ccc21`, the activity, negative = toxicity was inactive: -0.675% [at 9.24 µM]. For `N/N=C(\c1ccccc1)C12CN3CN(CN(C3)C1)C2`, the Potency was “inactive”. With `O=C(/C=C/Nc1ccc([N+](=O)[O-])cc1)c1ccc(Br)cc1` the Potency was inconclusive [rising, partial curve]. In the case of `CCCCC1CC2=C(C(=O)OC(C)(C)O2)C(c2ccc3ccccc3c2)O1` (stereo not given), the Potency was inconclusive [cytotoxic, single point]. For `COC(=O)c1cc(Cl)c(NC(=O)c2ccc(F)cc2)cc1OC`, the Potency was inconclusive [cytotoxic, single point]. In the case of `Clc1ccc(SCCCCN2CCNCC2)cc1`, the Potency was inconclusive [cytotoxic, single point]. In the case of `CCc1ccc(C(O)c2ncc(-c3cccc(C(F)(F)F)c3)[nH]2)cc1` (stereo not given), the Potency was inconclusive [cytotoxic, single point]. For `CCN(CC(=O)Nc1ccc2c(c1)OCCO2)C(=O)C(C)Oc1ccc(F)cc1` (stereo not given), the Potency was “inactive”. In the case of `COc1ccc(-c2ccc(C(=O)Nc3cccc(F)c3)c3occc23)c(C)c1`, the Potency was inconclusive [cytotoxic, single point]. With `CCc1cc(C(=O)OC)c(NC(=O)CSc2nccn2C)s1` the Potency was “inactive”. For `O=C(NNC1CC(=O)N(c2ccc3c(c2)OCCO3)C1=O)c1ccccc1` (stereo not given), the Potency was “inactive”. With `Cc1oc(-c2ccc(Cl)cc2)nc1CS(=O)CC(=O)NCCCN1CCCC(C)C1` (stereo not given) the Potency was inconclusive [cytotoxic, single point]. In the case of `Cc1cccc(NC(=O)Nc2cccc(Oc3c(F)c(F)c(F)c(F)c3F)c2)c1`, the Potency was inconclusive [cytotoxic, single point]. With `CS(=O)(=O)c1ccc2nnn(OCC(=O)Nc3ccc(Br)cc3Br)c2c1` the Potency was inconclusive [cytotoxic, single point]. For `COC(=O)c1ccc2nc(NC(=O)C(C)C)sc2c1`, the Potency was inconclusive [cytotoxic, partial curve, poor fit]. For `COc1ccc(-c2csc(C(C)(O)c3cccc(F)c3)n2)cn1` (stereo not given), the Potency was inconclusive [cytotoxic, single point]. With `c1ccc(-c2ccnc3nc(-n4cccc4)nn23)cc1` the Potency was inconclusive [cytotoxic, single point]. With `COc1ccc(N2CCN(C(=O)CSc3nnc(-c4cccnc4)n3-c3ccc(F)cc3)CC2)cc1` the Potency was “inactive”. For `Cc1ccc(C(=O)Nc2sc3c(c2C(=O)O)CCCCC3)o1`, the Potency was active: 18.4 µM. In the case of `Cc1ccc(C)c(N2CCN(S(=O)(=O)c3ccc4[nH]c(=O)c(=O)[nH]c4c3)CC2)c1`, the Potency was inconclusive [cytotoxic, single point]. For `CCCc1nc2ccc(C)cn2c1Cc1ccccc1C(F)(F)F`, the Potency was active: 32.6 µM. For `CCOc1cccc(-n2nnnc2-c2ccc(OC)cc2)c1`, the Potency was active: 4.61 µM. In the case of `Cc1ccccc1CS(=O)(=O)c1cnc2ccccc2n1`, the Potency was inconclusive [cytotoxic, single point]. In the case of `COC(=O)c1ccc(NC(=O)COC(=O)c2nc3nccc(C)n3n2)cc1`, the Potency was inconclusive [rising, partial curve]. For `O=C(N/N=C(\c1ccccc1)c1ccccn1)c1ccccc1Cl`, the Potency was inconclusive [cytotoxic, partial curve]. In the case of `O=S(=O)(c1ccc(S(=O)(=O)N(Cc2ccccc2)Cc2ccco2)cc1)N1CCCC1`, the Potency was “inactive”. For `Cc1cccc(COCC(Cc2ccccc2)N2CCN(C(=O)c3cc(Cl)cc(Cl)c3)CCC2=O)c1` (stereo not given), the Potency was inconclusive [cytotoxic, partial curve]. For `O=C(COc1ccc(Cl)cc1)NNC(=O)c1ccccn1`, the Potency was inconclusive [cytotoxic, partial curve]. In the case of `O=C(C[C@H]1C[C@H](C(=O)N2CCOCC2)[C@@]2(CCC3CCCC3)c3[nH]c4cc(-c5ccco5)ccc4c3CCN2C1=O)NCc1ccco1`, the Potency was inconclusive [cytotoxic, single point]. In the case of `COc1ccc(NC(=O)CSc2nc3ccccc3c(=O)n2C)cc1`, the Potency was inconclusive [cytotoxic, single point]. In the case of `CCCCNc1c(-c2ccc(OC)c(Sc3ccc(OC)cc3)c2)nc2ccccn12`, the Potency was inconclusive [cytotoxic, single point]. For `CC(=O)OC1CC(c2cc(C(C)(C)C)c(O)c(C(C)(C)C)c2)=NO1` (stereo not given), the Potency was inconclusive [cytotoxic, single point]. With `COc1cc(/C=C(\C#N)c2nc3ccccc3[nH]2)cc(Br)c1OCc1ccc(F)cc1` the Potency was “inactive”. For `CC1CCc2c(sc(NC(=O)c3cccs3)c2C(=O)O)C1` (stereo not given), the Potency was inconclusive [cytotoxic, single point]. For `CCOC(=O)C1CCN(C(=O)c2cccc(S(=O)(=O)N3c4ccccc4CC3C)c2)CC1` (stereo not given), the Potency was “inactive”. In the case of `NS(=O)(=O)c1ccc(CCn2c(=S)[nH]c3ccc(F)cc3c2=O)cc1`, the Potency was “inactive”. In the case of `CN(C)c1ccc2c(=O)cc[nH]c2c1`, the Potency was “inactive”. In the case of `COc1ccc(C(=O)NC(=S)Nc2cccc3cc(O)ccc23)cc1OC`, the Potency was “inactive”. For `Nc1cc(=O)[nH]c(SCc2cccc(Cl)c2)n1`, the Potency was “inactive”. For `COc1ccc(-c2cc(NC=O)c3ncc(-c4ccc(C(C)=O)cc4)n3c2)cn1`, the Potency was inconclusive [cytotoxic, partial curve]. For `Cc1cccc(-c2nnc(SCc3ccc(C#N)cc3)n2Cc2ccco2)c1`, the Potency was inconclusive [cytotoxic, single point]. With `CC1(Cc2ccccc2OC(F)(F)F)C(=O)Nc2cc(-c3ccccc3Cl)ccc21` (stereo not given) the Potency was inconclusive [cytotoxic, single point]. For `CC(C)Oc1cccc(C(=O)C2CCCN(Cc3cccn3-c3ccccn3)C2)c1` (stereo not given), the Potency was active: 20.6 µM. With `C=CCNc1nc(NCCOC)c2sc(-c3ccccc3)cc2n1` the Potency was inconclusive [cytotoxic, single point]. For `CN(C)c1ccc(/C=N/NC(=O)c2ccc(CN3CCOCC3)cc2)cc1Br`, the Potency was inconclusive [cytotoxic, single point]. In the case of `CCCc1cc(=O)oc2c(C)c(OCC(=O)NC3CC(C)(C)NC(C)(C)C3)ccc12`, the Potency was inconclusive [cytotoxic, single point]. With `CCOc1ccc(-c2n[nH]c(C)c2Oc2ccc(OC)cc2)c(O)c1` the Potency was inconclusive [cytotoxic, single point]. With `CCOC(=O)C1(C)CCCN1C(=O)c1ccc(C)cc1` (stereo not given) the Potency was “inactive”. In the case of `COc1ccc(C(=O)Sc2ccc(Cl)cc2)cc1OC`, the Potency was inconclusive [cytotoxic, single point]. In the case of `CS(=O)(=O)c1ccc(Cl)c(NC(=O)CCc2ccccc2)c1`, the Potency was “inactive”. For `O=C(N/N=C/c1ccc(Br)cc1)c1ccccc1-n1cccc1`, the Potency was active: 11.2 µM. For `CCc1[nH]nc(C(=O)NC2CCCc3c2cnn3-c2cc(C)cc(C)c2)c1C` (stereo not given), the Potency was “inactive”. For `COc1ccc(-c2csc(Nc3cc(C)ccn3)n2)cc1OC`, the Potency was inconclusive [cytotoxic, single point]. In the case of `O=C(c1ccc2nc(-c3ccco3)c(-c3ccco3)nc2c1)N1CCN(c2ccccc2)CC1`, the Potency was inconclusive [cytotoxic, single point]. With `COc1ccc(CN2CCCC(C(=O)c3ccc(Cl)cc3)C2)cc1Cn1cccn1` (stereo not given) the Potency was inconclusive [cytotoxic, single point]. In the case of `CN1CC(c2ccccn2)C2(SC(=S)N(Cc3ccccc3)C2=O)C12C(=O)Nc1ccccc12` (stereo not given), the Potency was inconclusive [cytotoxic, single point]. With `COc1cc2c(cc1NC(=O)C(C)OC(=O)C1CC(=O)N(Cc3ccco3)C1)oc1ccccc12` (stereo not given) the Potency was inconclusive [cytotoxic, single point]. In the case of `Nc1cccc(C(=O)Nc2ccc3nc(-c4cccnc4)[nH]c3c2)c1`, the Potency was “inactive”. In the case of `CCN1C(=O)[C@H]2[C@@H](c3ccc(C)cc3)N3C(=O)N(c4ccc(OC)cc4)C(=O)[C@@]3(C)[C@H]2C1=O`, the Potency was “inactive”. With `COc1cc(CNc2ccc3[nH]c(=O)[nH]c3c2)cc(Br)c1OCc1ccccc1F` the Potency was inconclusive [cytotoxic, partial curve]. With `COc1ccc(/C=C/C(=O)c2ccncc2)c2ccccc12` the Potency was inconclusive [cytotoxic, single point]. With `Cc1cc(NC(=O)CSc2nc3ccccc3c(=O)n2C(C)c2ccccc2)no1` (stereo not given) the Potency was inconclusive [cytotoxic, partial curve]. For `Cc1cccc(Nc2ccccc2C(=O)OCC(=O)NCc2ccco2)c1C`, the Potency was inconclusive [cytotoxic, single point]. In the case of `C[C@@H]1CN([C@H](C)CO)S(=O)(=O)c2ccc(C#CC3CCCC3)cc2O[C@H]1CN(C)C(=O)Cc1ccccc1`, the Potency was inconclusive [cytotoxic, single point]. For `Cc1c(Cl)c([N+](=O)[O-])nn1CCCC(=O)NCCc1ccccc1`, the Potency was “inactive”. With `Cc1cc(C)nc(Oc2ccc(Br)cc2)n1` the Potency was “inactive”. For `COc1ccc(OC)c(Nc2nc(-c3sc(C)nc3C)cs2)c1`, the Potency was inconclusive [cytotoxic, single point]. In the case of `COCc1cc(C)nc(N/N=C/c2ccc(-c3ccc(Cl)cc3[N+](=O)[O-])o2)c1C#N`, the Potency was “inactive”. For `COc1cc(/C=C2\N=C(c3ccccc3)NNC2=O)cc(OC)c1OC`, the Potency was active: 3.26 µM. In the case of `O=C(c1cc(-c2ccccc2Cl)on1)N1CCN(C(=O)c2ccco2)CC1`, the Potency was “inactive”.
